Assay results: PMC10668032
This is one part of the list. At the low end of the ranking, values are background and their order means little.

These sequences were tested against SIX1 homeodomain (reference allele) (UniProt Q15475) (assay: universal protein binding microarray). Conditions: Universal all-10-mer PBM (8x60K, AMADID 030236), 300 nM GST-tagged protein, Alexa Fluor 488 anti-GST; buffer, salt, pH and temperature not stated; high values mean tight binding; most listed sequences are background and not binding sites; double strand, one strand shown.
Sequence GATGTCTA has a binding signal of -0.0479 E-score.
CGAACACG gave a binding signal of -0.0519 E-score.
Sequence GATAAGGC has a binding signal of 0.0313 E-score.
CGATGATA was tested, and the binding signal was 0.445 E-score.
ACATGACA showed a binding signal of 0.126 E-score.
Work on GCCGCAGC yielded a binding signal of -0.233 E-score.
CAGGTTGG gave a binding signal of -0.12 E-score.
In the case of TGTTTCAA, the binding signal is reported as -0.159 E-score.
ATTTAGTC was tested, and the binding signal was -0.0853 E-score.
With AGGTTTCG the binding signal was 0.0667 E-score.
For AGTCACTC, the binding signal was -0.189 E-score.
Work on ACTAAGAG yielded a binding signal of 0.0877 E-score.
Work on GACGACCA yielded a binding signal of -0.194 E-score.
Sequence ATAACGTA has a binding signal of 0.119 E-score.
GTCCTCCA showed a binding signal of -0.1 E-score.
With GGTGAAGA the binding signal was -0.000135 E-score.
Work on AGCCCCCG yielded a binding signal of -0.0692 E-score.
Work on TAGCGTAA yielded a binding signal of -0.155 E-score.
For TGAATTAA, the binding signal was -0.0102 E-score.
Sequence CACCACAC has a binding signal of 0.173 E-score.
Sequence TCCCATCA has a binding signal of -0.0976 E-score.
With ACTATCTA the binding signal was 0.154 E-score.
With CCCAACGC the binding signal was -0.0505 E-score.
With ATAGCGAG the binding signal was 0.00321 E-score.
In the case of TCCACCAA, the binding signal is reported as -0.0352 E-score.
In the case of AAGTAGGA, the binding signal is reported as -0.0758 E-score.
CGGCTTAC showed a binding signal of -0.116 E-score.
For AGCTTTTG, the binding signal was -0.225 E-score.
Sequence AGACGTCT has a binding signal of 0.0412 E-score.
For TACCAAGA, the binding signal was 0.084 E-score.
For ACTATAAA, the binding signal was -0.191 E-score.
AACCTGGA showed a binding signal of -0.0116 E-score.
For CTGTCGTC, the binding signal was -0.121 E-score.
In the case of CCCATTTA, the binding signal is reported as -0.0492 E-score.
CGGGAGTC was tested, and the binding signal was 0.0622 E-score.
ATCATGTC was tested, and the binding signal was 0.295 E-score.
ACCCTTGC gave a binding signal of -0.0246 E-score.
GCCTCTCC was tested, and the binding signal was 0.0212 E-score.
GACTACAC showed a binding signal of 0.0206 E-score.
Work on CAATGTTC yielded a binding signal of -0.211 E-score.
CTAGAACA showed a binding signal of -0.0503 E-score.
For CTCTCGGC, the binding signal was -0.12 E-score.
Sequence AGATTATC has a binding signal of 0.14 E-score.
Sequence CTTGGGTC has a binding signal of -0.159 E-score.
Sequence AGTGGCTG has a binding signal of -0.0379 E-score.
GCAGTCAA gave a binding signal of -0.298 E-score.
ACCGTAGA showed a binding signal of 0.0323 E-score.
CCACAACC gave a binding signal of -0.0539 E-score.
Work on CCGCTATA yielded a binding signal of 0.176 E-score.
Sequence CGGAGTAC has a binding signal of 0.0699 E-score.
Sequence CTGTGGCC has a binding signal of -0.178 E-score.
With ACTACTGC the binding signal was -0.126 E-score.
For GGTTGCTA, the binding signal was -0.192 E-score.
CGCGTATC was tested, and the binding signal was 0.424 E-score.
Sequence ATGAGTGA has a binding signal of 0.126 E-score.
ATGTCGTA showed a binding signal of 0.0798 E-score.
In the case of CATGCCTA, the binding signal is reported as -0.146 E-score.
For AGGTACCT, the binding signal was -0.263 E-score.
GAGTGTCC was tested, and the binding signal was -0.0242 E-score.
AGCCAGTC showed a binding signal of -0.089 E-score.
Sequence CTATCCGC has a binding signal of 0.36 E-score.
Work on AAAAAAAT yielded a binding signal of -0.241 E-score.
CGATCGAA showed a binding signal of 0.0968 E-score.
Work on AACTGACC yielded a binding signal of -0.162 E-score.
Work on AGCTTGAT yielded a binding signal of 0.186 E-score.
GTGAGCAA was tested, and the binding signal was -0.00787 E-score.
With AGTTATCA the binding signal was 0.119 E-score.
GACTAATA gave a binding signal of 0.144 E-score.
ACTGAACA gave a binding signal of -0.0599 E-score.
CAACCTGG showed a binding signal of 0.0307 E-score.
With CAGTTTCC the binding signal was -0.24 E-score.
In the case of GGGGGGAC, the binding signal is reported as -0.258 E-score.
With CAATAGTG the binding signal was 0.0137 E-score.
CTACTGTA was tested, and the binding signal was 0.165 E-score.
ACCATGCC gave a binding signal of -0.0639 E-score.
With ATACTTCG the binding signal was 0.304 E-score.
Work on CCGGGACA yielded a binding signal of -0.0617 E-score.
CGAGGTAC showed a binding signal of -0.137 E-score.
AAACATCC gave a binding signal of -0.00493 E-score.
Work on ACCTCCTA yielded a binding signal of 0.004 E-score.
In the case of AATAGCCG, the binding signal is reported as -0.105 E-score.
TCGGAAAA showed a binding signal of -0.132 E-score.
For CAAACTTC, the binding signal was -0.315 E-score.
With TCGTCCCA the binding signal was -0.13 E-score.
GCGACGCA was tested, and the binding signal was -0.0979 E-score.
Sequence AATTTCGT has a binding signal of -0.188 E-score.
AGTATATC was tested, and the binding signal was 0.383 E-score.
With GAGAAACA the binding signal was -0.157 E-score.
For AAGGAATT, the binding signal was -0.185 E-score.
AATGGGAC was tested, and the binding signal was -0.231 E-score.
For CACGCGAA, the binding signal was -0.214 E-score.
AACGACAC showed a binding signal of 0.276 E-score.
GACTTTAA was tested, and the binding signal was -0.172 E-score.
For ATGCCCAA, the binding signal was -0.0747 E-score.
CTCCAATA showed a binding signal of 0.0224 E-score.
In the case of AATATCGC, the binding signal is reported as 0.299 E-score.
ATGACGTA showed a binding signal of 0.0659 E-score.
In the case of GTCAATAA, the binding signal is reported as -0.0302 E-score.
AGTCCATC was tested, and the binding signal was -0.0448 E-score.
For CGCCGAAG, the binding signal was -0.12 E-score.
Sequence TATGTCGA has a binding signal of -0.0346 E-score.
With CTGGGATA the binding signal was 0.266 E-score.
Sequence AGCCTGTA has a binding signal of 0.0353 E-score.
For TGGAGAAA, the binding signal was -0.3 E-score.
In the case of CCATATGC, the binding signal is reported as 0.159 E-score.
For ACCGTAAT, the binding signal was 0.0213 E-score.
Sequence CTTGGAAC has a binding signal of -0.112 E-score.
With CCGTTACG the binding signal was -0.14 E-score.
ATTGCGGC gave a binding signal of -0.161 E-score.
Sequence ACTGAGTG has a binding signal of -0.00266 E-score.
GAGTCTGA was tested, and the binding signal was -0.248 E-score.
In the case of TAGTATCA, the binding signal is reported as 0.457 E-score.
Work on GGACAAGA yielded a binding signal of -0.0999 E-score.
Sequence GGTAAATA has a binding signal of -0.0336 E-score.
GACCCCAA showed a binding signal of 0.11 E-score.
For CACCCTCA, the binding signal was -0.00249 E-score.
CGACACAA was tested, and the binding signal was -0.169 E-score.
With CTGCAGAA the binding signal was -0.191 E-score.
ACTAATCC gave a binding signal of 0.228 E-score.
Work on ACGGCACA yielded a binding signal of -0.147 E-score.
Work on AGATACGG yielded a binding signal of 0.401 E-score.
For AGGACCCG, the binding signal was -0.204 E-score.
CGAATAGC showed a binding signal of -0.00541 E-score.
Sequence GGTTGGGA has a binding signal of -0.0993 E-score.
With ACGTCTCT the binding signal was -0.198 E-score.
With AATCGTCC the binding signal was -0.158 E-score.
For ACGCTCGA, the binding signal was -0.0395 E-score.
AAGCAAAT showed a binding signal of -0.299 E-score.
With AGCCGCAT the binding signal was -0.0491 E-score.
Sequence TCCCTAAA has a binding signal of -0.0332 E-score.
For CATTTACA, the binding signal was -0.121 E-score.
CACTCGGC was tested, and the binding signal was 0.0257 E-score.
Sequence CAAAGTAG has a binding signal of 0.0182 E-score.
GACCCATC showed a binding signal of 0.13 E-score.
In the case of ATCGACAC, the binding signal is reported as 0.306 E-score.
TCGAGAAA showed a binding signal of -0.0533 E-score.
In the case of CCTTTATC, the binding signal is reported as -0.0131 E-score.
ACTTGACC gave a binding signal of -0.22 E-score.
GCGAATAA was tested, and the binding signal was -0.153 E-score.
AACCGGTG was tested, and the binding signal was 0.056 E-score.
Work on ATCCCCTC yielded a binding signal of 0.387 E-score.
Sequence CCGCTGGC has a binding signal of -0.11 E-score.
For AGCTACGA, the binding signal was -0.261 E-score.
Work on ACGCAAAC yielded a binding signal of -0.0502 E-score.
Work on ATTGTTTA yielded a binding signal of -0.142 E-score.
GAACCTTC was tested, and the binding signal was -0.173 E-score.
ACATCGAT showed a binding signal of 0.144 E-score.
For AATTGGTA, the binding signal was 0.00128 E-score.
Work on CCAGGCCA yielded a binding signal of -0.248 E-score.
Sequence AGCTAGTG has a binding signal of -0.0267 E-score.
With AATTACGT the binding signal was -0.301 E-score.
Work on CGGTTGAC yielded a binding signal of -0.174 E-score.
AATCCGCC gave a binding signal of 0.212 E-score.
Sequence GGTCTGCA has a binding signal of -0.135 E-score.
Work on CTTTGCTA yielded a binding signal of -0.159 E-score.
With CGCCGACG the binding signal was -0.194 E-score.
For AAGGCTGC, the binding signal was -0.174 E-score.
AAAAGTCG was tested, and the binding signal was -0.269 E-score.
AATAAATC showed a binding signal of -0.0374 E-score.
TTCGAGAA was tested, and the binding signal was -0.122 E-score.
CATAAAGA showed a binding signal of -0.258 E-score.
Sequence AGGATATA has a binding signal of 0.346 E-score.
With CTCACTTA the binding signal was -0.0385 E-score.
With ATTAAGGC the binding signal was -0.0426 E-score.
With GTGAAGAA the binding signal was -0.134 E-score.
AAGGAATG gave a binding signal of -0.254 E-score.
In the case of CTCGCATA, the binding signal is reported as -0.0441 E-score.
GCCATAAC was tested, and the binding signal was -0.287 E-score.
GATGAAGC was tested, and the binding signal was 0.0137 E-score.
For CTAGCCAG, the binding signal was -0.157 E-score.
Work on CATGAAGG yielded a binding signal of 0.114 E-score.
In the case of GAAAACCA, the binding signal is reported as -0.145 E-score.
